Test results as given in publication PMC4336329 (PLoS ONE, 2015).
Screen size: about 310,000 compounds; about 14,000 (4.5%) showed an effect of 50% or more. Effects have a minus sign here. Some of the results follow.

Target: human ether-à-go-go-related gene (hERG) potassium channel (human, UniProt Q12809)
Experiment: primary screen, population patch clamp on CHO cells stably expressing hERG
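Further: peak tail current of the secondary pulse compared with the same well before compound.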

Chain of human ether-à-go-go-related gene (hERG) potassium channel (Q12809 whole entry, looked up): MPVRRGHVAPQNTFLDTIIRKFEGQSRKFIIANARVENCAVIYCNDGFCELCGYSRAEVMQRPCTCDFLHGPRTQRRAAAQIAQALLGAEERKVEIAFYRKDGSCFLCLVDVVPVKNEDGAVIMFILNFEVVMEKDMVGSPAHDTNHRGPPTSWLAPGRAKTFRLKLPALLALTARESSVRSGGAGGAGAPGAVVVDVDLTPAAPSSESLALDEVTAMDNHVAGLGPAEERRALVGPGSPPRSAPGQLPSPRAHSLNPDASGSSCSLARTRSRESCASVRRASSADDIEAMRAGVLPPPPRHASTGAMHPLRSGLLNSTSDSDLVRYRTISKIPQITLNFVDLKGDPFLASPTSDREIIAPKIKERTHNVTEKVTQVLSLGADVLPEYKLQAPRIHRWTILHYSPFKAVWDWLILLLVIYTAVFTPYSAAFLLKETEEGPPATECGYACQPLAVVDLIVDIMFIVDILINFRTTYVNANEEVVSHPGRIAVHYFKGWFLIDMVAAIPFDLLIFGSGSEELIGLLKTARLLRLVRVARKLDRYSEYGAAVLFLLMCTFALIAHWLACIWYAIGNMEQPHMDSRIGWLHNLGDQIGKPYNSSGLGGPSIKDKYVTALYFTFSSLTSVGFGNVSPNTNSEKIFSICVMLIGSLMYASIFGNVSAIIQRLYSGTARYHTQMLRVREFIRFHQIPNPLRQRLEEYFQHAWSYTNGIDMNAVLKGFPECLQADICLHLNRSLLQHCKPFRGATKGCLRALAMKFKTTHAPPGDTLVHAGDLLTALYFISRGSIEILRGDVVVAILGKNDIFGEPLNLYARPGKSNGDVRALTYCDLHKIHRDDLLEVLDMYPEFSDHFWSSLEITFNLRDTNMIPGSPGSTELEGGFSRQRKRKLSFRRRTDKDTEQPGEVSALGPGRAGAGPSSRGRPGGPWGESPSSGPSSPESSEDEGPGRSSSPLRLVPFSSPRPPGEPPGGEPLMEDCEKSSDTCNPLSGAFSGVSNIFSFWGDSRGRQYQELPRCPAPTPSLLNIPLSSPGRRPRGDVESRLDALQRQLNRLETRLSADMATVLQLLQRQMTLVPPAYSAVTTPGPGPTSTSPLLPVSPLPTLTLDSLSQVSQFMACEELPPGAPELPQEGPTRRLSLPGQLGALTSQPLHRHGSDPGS

Row | SMILES | hERG current change (%, negative = inhibition) at 10uM [%]
1 | O=C(NCc1ccccc1OC(F)(F)F)C1CCC(=O)N(Cc2cccc(F)c2)C1 (centres unmarked) | -12.4
2 | Cn1c(O)c(C=NCc2ccco2)c(=O)n(C)c1=O | -10.8
3 | Cc1ccc(N2C=Nc3ccc(C)c4nc(C)cc2c34)cc1 | -42.6
4 | Cc1cc(C)n(-c2ccc(NC(=O)C3CCCCN3C(=O)c3ccc(C)s3)cc2)n1 (centres unmarked) | -16.7
5 | COc1ccc(C(=O)Nc2ccccc2N2CCCC2)cc1 | -44.1
6 | COc1c(OC(C)=O)c(=O)n2c3ccccc3c3ccnc1c32 | -2.05
7 | CCNc1nc(NCC)nc(OCCOC(=O)c2ccccc2)n1 | -33.1
8 | O=C(Nc1ccc(Cl)cc1)[C@@H]1[C@@H]2C(=O)N(c3ccc4ccccc4c3)C(=O)[C@@H]2[C@H]2C=CC=NN21 | -3.38
9 | O=c1c(-c2ccccc2)nc(-c2ccccc2)cn1O | 2.67
10 | CCc1ccc(OCC(=O)NC(=S)Nc2cccc(CO)c2)c(Br)c1 | 13.9
11 | CC(C)NC(=O)CN1CCN(c2ncccn2)CC1.O=C(O)C(=O)O | 5.84
12 | CC12CC3(C)CC(C)(C1)CC(NC(=O)N1CCCC1)(C2)C3 | 1.92
13 | CC1CCCCC1NC(=O)c1cc2c(=O)n3ccccc3nc2n1C (centres unmarked) | 4.32
14 | O=C(CCCN1C(=O)c2cccc3cccc(c23)C1=O)NCCN1CCOCC1 | 7.31
15 | Cc1cc(N2CCN(C)CC2)n2cc(-c3ccc(F)cc3)nc2n1 | -87.6
16 | CCOc1ccc(C(=O)NCCCn2ccnc2)cc1 | -22.9
17 | OCCC1CN(C/C=C/c2ccco2)CCN1Cc1ccccc1 (centres unmarked) | -8.57
18 | COc1ccc(-c2cc(C(=O)NC(Cc3cc4ccccc4[nH]3)C(=O)O)c(C)o2)cc1OC (centres unmarked) | 18.8
19 | CCOC(=O)CNc1nc(C(C)(C)C)nc2c1nnn2Cc1ccccc1 | 10

Row | SMILES | hERG current change (%, negative = inhibition) at 10uM [%]
20 | CCCc1nc(SC)[nH]c(=O)c1C | 7.16
21 | Nc1ncn(CC(=O)c2ccccc2)n1 | 8.12
22 | CCc1ccc(C(=O)NC(=S)Nc2ccc(N3CCOCC3)cc2)cc1 | 17.8
23 | O=C(CNC(=O)c1ccc(Br)cc1)NCC(=O)OCC(=O)c1ccc([N+](=O)[O-])cc1 | 13.4
24 | O=C1C2CCCCN2C(=O)N1CCCN1CCN(c2ccc(F)cc2)CC1 (centres unmarked) | -34.8
25 | CCOC(=O)c1oc2ccccc2c1COC(=O)CNC(=O)c1cc(OC)c(OC)c(OC)c1 | -22.9
26 | Cc1cc(C)nc(-n2nc(C)c(Sc3ccc(F)cc3)c2N)n1 | -61.7
27 | Cc1c(NC(=O)c2ccc(N(C)S(C)(=O)=O)cc2)c(=O)n(-c2ccccc2)n1C | 8.76
28 | O=C(NN1C(=O)c2ccccc2NC1c1ccccn1)c1ccccc1 (centres unmarked) | 12.2
29 | COc1ccc(CCC(=O)OCC(=O)NCc2ccc3c(c2)OCO3)cc1 | -22
30 | CCN(CC)S(=O)(=O)c1cccc(C(=O)N[C@H](C(=O)OCC(=O)NC(=O)NC)C(C)C)c1 | -5.08
31 | CCc1ccc(OCC(=O)N/N=C(\C)c2ccc(-n3ccnc3)cc2)cc1 | -71.8
32 | COc1ccc(C2CC(c3ccc(OC)c(OC)c3)=NN2S(C)(=O)=O)cc1 (centres unmarked) | 2.96
33 | CC(c1nccs1)N(C)C(=O)CCc1nnc(-c2ccc(-c3ccccc3)cc2)o1 (centres unmarked) | -29.1
34 | COc1ccc(-c2nnc(SCC(=O)Oc3ccc(C)cc3)o2)cc1 | 13.7
35 | Cc1ccc2nc(NC(=S)NC(=O)c3ccc(OC(C)C)cc3)sc2c1 | 5.92
36 | CCCNC(=O)c1c(N)n(-c2cc(OC)cc(OC)c2)c2nc3ccccc3nc12 | 0.629
37 | O=C(CCl)N(c1ccc(Cl)cc1)c1c[nH]c2ccccc12 | 1.11
38 | Fc1ccc(C2c3cccn3CCN2C(=S)Nc2cccc(Br)c2)cc1 (centres unmarked) | 19.4

Row | SMILES | hERG current change (%, negative = inhibition) at 10uM [%]
39 | S=C(NNc1nc(Nc2ccccc2)nc(N2CCCCC2)n1)NC1CCCCC1 | 20.5
40 | Cc1nonc1NC(=O)CSc1nnc(-c2ccoc2C)n1CC(C)C | -17.1
41 | COc1ccc(CCNC(=O)CSc2nc(N)c(C#N)c(-c3cccs3)c2C#N)cc1OC | 10.9
42 | O=C(c1cccnc1)N1N=C(c2cccs2)CC1c1ccc(F)cc1 (centres unmarked) | -34.7
43 | Cc1cccc(/C=N/Nc2ccc3ccccc3n2)c1 | 6.07
44 | COC(=O)c1cccc(NC(=O)Nc2ccc(Cl)cc2Cl)c1 | 10.8
45 | COc1ccc(N(CC(=O)N2CCN(c3ccccc3F)CC2)S(=O)(=O)c2c(C)n[nH]c2C)cc1 | -20.6
46 | Cc1ccc(S(=O)(=O)N2CCOCC2)cc1NC(=O)COC(=O)Cc1cccs1 | -62.8
47 | Cc1cc([N+](=O)[O-])nn1CC(=O)NCc1cccs1 | 0.204
48 | Nc1nonc1-n1nnc(C(=O)N/N=C/c2ccco2)c1-c1ccccc1 | 10.9
49 | Cc1ccc(NC(=O)C(=O)NC2CCCCC2)cc1 | 18.9
50 | Cc1ccc(SCc2cc(=O)[nH]c(SCC(=O)Nc3cc(Cl)ccc3Cl)n2)cc1 | 24.5
51 | CC/C(C)=N\NC(=O)CNC(=O)c1ccc(Cl)cc1Cl | 4.95
52 | CCCCNC(=S)N(CCCO)Cc1cc2cc3c(cc2[nH]c1=O)OCCO3 | 0.486
53 | CCC(=O)Nc1cccc(C(=O)/C=C/c2ccccc2)c1 | -37
54 | COC(=O)N1CCN(c2ccc(C)c(C)c2)CC1 | 17.6
55 | COc1ccccc1-n1c(CNC(=O)c2ccccc2)nnc1SCC(=O)Nc1nnc(C)s1 | 16.5
56 | CC1=NN(C(=O)Cc2ccc([N+](=O)[O-])cc2)C(O)(c2ccccc2)C1 (centres unmarked) | -20.1
